We go through 87 compounds from publication PMC4336329 (PLoS ONE, 2015).

In all, about 310,000 compounds went through this assay and about 14,000 (4.5%) showed an effect of 50% or more. Effects have a minus sign here. The list shows a part of the results.
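Note: peak tail current of the secondary pulse compared with the same well before compound.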

The target in the experiment is human ether-à-go-go-related gene (hERG) potassium channel (human, UniProt Q12809). Briefly: primary screen, population patch clamp on CHO cells stably expressing hERG.
human ether-à-go-go-related gene (hERG) potassium channel, sequence (Q12809 whole entry, looked up): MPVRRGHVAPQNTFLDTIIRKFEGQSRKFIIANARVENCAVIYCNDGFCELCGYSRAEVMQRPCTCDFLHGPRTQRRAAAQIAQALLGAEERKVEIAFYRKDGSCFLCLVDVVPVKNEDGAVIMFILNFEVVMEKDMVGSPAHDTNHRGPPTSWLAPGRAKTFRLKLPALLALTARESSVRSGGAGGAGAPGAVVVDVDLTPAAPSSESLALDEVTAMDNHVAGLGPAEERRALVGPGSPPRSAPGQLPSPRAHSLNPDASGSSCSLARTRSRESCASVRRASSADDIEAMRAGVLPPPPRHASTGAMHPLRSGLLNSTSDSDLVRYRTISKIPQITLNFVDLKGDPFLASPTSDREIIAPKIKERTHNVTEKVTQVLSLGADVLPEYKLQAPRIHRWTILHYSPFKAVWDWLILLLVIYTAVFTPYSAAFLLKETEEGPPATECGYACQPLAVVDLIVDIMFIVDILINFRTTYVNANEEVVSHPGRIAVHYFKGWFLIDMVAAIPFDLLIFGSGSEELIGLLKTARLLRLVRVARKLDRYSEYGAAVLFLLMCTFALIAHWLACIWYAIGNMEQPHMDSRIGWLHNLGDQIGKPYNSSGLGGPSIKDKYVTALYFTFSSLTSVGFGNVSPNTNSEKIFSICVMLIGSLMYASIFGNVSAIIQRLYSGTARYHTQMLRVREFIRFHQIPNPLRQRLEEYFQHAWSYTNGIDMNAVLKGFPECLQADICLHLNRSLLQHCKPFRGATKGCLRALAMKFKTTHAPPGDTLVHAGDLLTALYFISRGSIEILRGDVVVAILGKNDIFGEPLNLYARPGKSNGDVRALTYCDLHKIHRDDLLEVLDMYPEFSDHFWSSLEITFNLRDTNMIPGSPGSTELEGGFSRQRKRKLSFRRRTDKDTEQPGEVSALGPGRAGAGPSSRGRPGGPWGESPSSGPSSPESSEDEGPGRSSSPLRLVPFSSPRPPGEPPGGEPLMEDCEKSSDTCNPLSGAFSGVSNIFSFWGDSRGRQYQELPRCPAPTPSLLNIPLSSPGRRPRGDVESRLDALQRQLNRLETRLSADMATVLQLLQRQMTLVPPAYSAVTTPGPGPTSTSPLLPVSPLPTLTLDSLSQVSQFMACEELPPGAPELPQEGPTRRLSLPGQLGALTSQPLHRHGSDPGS
`CCOC(=O)C1CCCN(CC(=O)Nc2c(C(=O)OC)[nH]c3ccccc23)C1` (stereo not drawn): the “hERG current change (%, negative = inhibition) at 10uM” value is given as -25.2%.
Turning to `NC(=O)C1(N2CCCCC2)CCN(C(=O)CSc2nc3ccccc3[nH]2)CC1`, the “hERG current change (%, negative = inhibition) at 10uM” value turned out to be 7.81%.
Under `Cc1noc(C)c1COc1ccc(C(=O)N2CCCC(C(F)(F)F)C2)cc1` (stereo not drawn) stands -18.8%; under `CCOC(=O)c1oc2nc(CC(C)C)c3c(c2c1N)CCC3`, 7.9%; under `CC(Oc1ccc(Cl)cc1)C(=O)Nc1ccc(S(=O)(=O)N2CCOCC2)cc1` (stereo not drawn), -19.1%.
For `COc1ccc(CC(=O)OCN2C(=O)c3ccccc3C2=O)cc1` the value was 3.16%.
Consider `CCc1c(C)nc2ncnn2c1Nc1ccc(C#N)c(Cl)c1`, for which the “hERG current change (%, negative = inhibition) at 10uM” value is -50.6%.
On to `CC(C)(C)C1=C[C@@H](CO)C[C@@H](CO)C1`, for which the “hERG current change (%, negative = inhibition) at 10uM” value was 1.79%.
Consider `O=C(c1cc(=O)[nH]c2ccccc12)N1CCN(c2cccc(C(F)(F)F)c2)CC1`, for which the “hERG current change (%, negative = inhibition) at 10uM” value is -27.1%.
Under `CCOc1ccc(C(=O)n2cc(C(=O)OC)c3ccccc32)cc1` stands 8.21%; under `COc1ccc(Nc2nc(-c3cccc(OC)c3O)nc3ccccc23)cc1`, 23.6%; under `CC(=O)/C(C#N)=C1\NC(=O)C(Cc2cc(Cl)ccc2Cl)S1` (stereo not drawn), 3.25%.
For `CC1CCCN(c2ccc(C(=O)NCc3ccc4c(c3)OCO4)cc2[N+](=O)[O-])C1` (stereo not drawn) the value was 1.28%; for `CN(C)c1ccc(/C=N/NC(=O)CN2CCN(c3ccc(F)cc3)CC2)cc1`, 1.78%; for `Cc1cccc(/C=N/n2c(-c3ccco3)n[nH]c2=S)c1`, -17.8%.
For `COc1ccc(-n2nc(C(=O)NCC(=O)NCCCN3CCCCCC3)c3ccccc3c2=O)cc1Cl` the value was -56%; for `CC1=CN2C(=N)/C(=C/c3cn(CCCOc4ccccc4C)c4ccccc34)C(=O)N=C2S1`, 13.8%.
As to `CC(=O)Nc1ccc(OC(=O)Oc2ccc(NC(C)=O)cc2)cc1`, the “hERG current change (%, negative = inhibition) at 10uM” value is 0.315%.
Under `Cc1ccc(CNC(=O)CCc2nnc(Cc3ccc(-c4ccccc4)cc3)o2)o1` stands 8.89%; under `O=c1[nH]cnc2c1nc(NCc1ccccc1)n2C1O[C@@H](CO)[C@H](O)[C@@H]1O` (stereo partly drawn), 3.99%.
For `Cc1cc(C)c2c(n1)nn1c(NCCN3CCOCC3)cc(C)nc21` the value was -0.656%; for `Nc1ccc(C(=O)Nc2ccc3nc(-c4cccnc4)[nH]c3c2)cc1`, 4.27%; for `COc1ccc(C(=O)N2CCCC(C(=O)N3CCN(c4ccccc4)CC3)C2)cc1` (stereo not drawn), -9.18%.
Turning to `[O-][n+]1c2cc(C(F)(F)F)ccc2c2n1CCN=C2c1ccc(Cl)cc1`, the “hERG current change (%, negative = inhibition) at 10uM” value was -55.6%.
For `O=C(NCCc1ccc(Cl)cc1)C1CCCO1` (stereo not drawn) the value was 12.8%; for `C1=Nc2c(NCc3ccccc3)ncnc2Oc2ccccc21`, -5.01%.
Under `COc1ccccc1NS(=O)(=O)c1ccc(C)c(NC(=O)C2CCCO2)c1` (stereo not drawn) stands 4.4%; under `O=C(O)c1ccccc1SC1CC(=O)N(c2ccc3c(c2)OCO3)C1=O` (stereo not drawn), 7.42%.
For `CCOc1cccc(C(=O)Nc2cnn(Cc3ccccc3)c2)c1` the value was 9.05%; for `O=[N+]([O-])c1ccc2c(c1)C(N1CCOCC1)/C(=C/C1(O)CCCCC1)O2` (stereo not drawn), 0.294%.
As to `CC(C)(C)c1nc(-c2ccccc2)nc2c1OCCC2`, the “hERG current change (%, negative = inhibition) at 10uM” value came to 9.73%.
Regarding `NC(=O)N1CCCC1C(=O)Nc1ccc(Cl)c(Cl)c1` (stereo not drawn), the “hERG current change (%, negative = inhibition) at 10uM” value is reported as 3.86%.
On to `O=C(c1cccnc1)N1CCN(S(=O)(=O)c2cccc(Cl)c2)CC1`, for which the “hERG current change (%, negative = inhibition) at 10uM” value turned out to be 2.83%.
For `O=c1c2cnn(-c3ccccc3Cl)c2ncn1Cc1cccnc1` the value was 15.5%.
As for `Cc1cc(/C=C(\C#N)c2nnc(N3CCOCC3)n2-c2ccccc2)c(C)n1-c1ccccc1`, the “hERG current change (%, negative = inhibition) at 10uM” value is on record as -36.7%.
Under `COCCNC(=O)CSc1nc2cc(OC)c(OC)cc2c(=O)n1CCc1ccc(S(N)(=O)=O)cc1` stands 13.2%; under `Cl.O=C(NCc1ccncc1)c1cccc(Cn2cc(Br)cn2)c1`, -20.1%; under `CCn1cc(C(=O)O)c(=O)c2cc(Br)ccc21`, -46.7%.
With `CC(C)NC(=O)CSc1nnc(C2CC2)n1-c1ccccc1`, the “hERG current change (%, negative = inhibition) at 10uM” value came out at 9.62%.
For `O=c1c([N+](=O)[O-])c(N2CCOCC2)c2ccccc2n1Cc1ccccc1` the value was 1%; for `CN(C)CCCNC(=O)c1ccc(=O)[nH]n1`, 8.18%; for `O=C(NCc1ccc(F)cc1)c1cnc2n(c1=O)CCS2`, -6.18%.
For `Cc1cc(C)c2nc(SCC(=O)N3CC(=O)Nc4ccccc43)c(C#N)cc2c1` the value was 18.5%; for `COc1ccc(CCNC(=O)CSc2cccc3cccnc23)cc1OC`, -5.27%; for `CN(C)CCn1c(=N)n(CC(O)c2ccc(Cl)c(Cl)c2)c2ccccc21.Cl` (stereo not drawn), -66.1%.
Under `CC(=O)Oc1ccc2nc(-c3ccco3)oc(=O)c2c1` stands -1.95%; under `CC(C)(C)NC(=O)NC(=O)CSc1ccc(S(=O)(=O)N2CCCCC2)cn1`, -13.5%.
In the case of `C=CCNc1oc(/C=C/c2ccccc2)nc1C#N`, the “hERG current change (%, negative = inhibition) at 10uM” value was -28%.
For `COc1cccc(CN(C(=O)c2cc3ccccc3oc2=O)C2CCS(=O)(=O)C2)c1` (stereo not drawn) the value was 18%; for `Cc1cc(NC(=O)CCC(=O)N(Cc2ccco2)C2(C(=O)NC3CCCC3)CCCCC2C)no1` (stereo not drawn), -7.43%.
Turning to `O=C1c2cccc3cccc(c23)C(=O)N1CCN1CCN(C(=S)Nc2ccc(Cl)cc2)CC1`, the “hERG current change (%, negative = inhibition) at 10uM” value was determined as 16.4%.
For `Cc1cc(NS(=O)(=O)c2ccc(NC(=O)CSc3nnc(-c4ccco4)n3C)cc2)nc(C)n1` the value was 5.75%; for `C/C(CC(=O)NCc1ccco1)=N\NC(=O)c1ccc(Cl)cc1Cl`, 8.44%; for `N#C/C(=C1/CCCCCN1)c1nc2ccccc2[nH]1`, 3.51%.
For `O=C(O)Cn1c(=O)c2c3c(sc2n(Cc2ccccc2)c1=O)CCCC3` the value was 16.6%.
Under `CC(C)CSC1=NSC2=NC(=O)/C(=C\c3coc4ccccc4c3=O)C(=N)N12` stands 16.7%.
In the case of `CCOc1ccc(N2CC(=O)N(c3ccc(OCC)cc3)CC2=O)cc1`, the “hERG current change (%, negative = inhibition) at 10uM” value is -20.1%.
As to `Nc1nc(-c2cccnc2)nn1S(=O)(=O)c1ccccc1`, the “hERG current change (%, negative = inhibition) at 10uM” value is 1.61%.
Under `Cc1ccc2nc(/C(C#N)=C\c3ccc(Oc4ccc([N+](=O)[O-])cn4)cc3)[nH]c2c1` stands 1.61%.
As for `COc1cc2c(=O)c(-c3ccc(O)cc3)coc2cc1OC1OC(CO)C(O)C(O)C1O` (stereo not drawn), the “hERG current change (%, negative = inhibition) at 10uM” value was 20.3%.
In the case of `Cc1ccc2c(c1)C(c1ccccc1)N(C(=O)c1ccc(Br)o1)CC(=O)N2` (stereo not drawn), the “hERG current change (%, negative = inhibition) at 10uM” value was -56.9%.
For `CN(C)CCCN(C(=O)c1ccco1)c1nc2c(F)cccc2s1.Cl` the value was -73.2%.
Consider `O=C(Nc1ncccc1O)c1ccc(S(=O)(=O)N2CCCC2)cc1`, for which the “hERG current change (%, negative = inhibition) at 10uM” value was 4.44%.
Under `CCOc1cccc(-c2nn3c(-c4cc(C)[nH]n4)nnc3s2)c1` stands -58.2%; under `CN(Cc1ccccn1)Cc1nc(Cc2ccccc2Cl)no1`, -40.4%.
Under `COc1cccc(SCc2noc(C(=O)NCC3CC3)c2C(=O)NCC2CC2)c1` stands -43.5%; under `COCc1ccc(C(=O)N(C)CC2CCCN(CCc3ccccc3F)C2)o1` (stereo not drawn), -41%; under `c1nc(NC2CCCCC2)c2[nH]cnc2n1`, -3.86%.
For `COc1ccc(N(CC(=O)NCCSc2ccccn2)S(C)(=O)=O)cc1Cl` the value was -8.86%; for `O=C(Cc1ccccc1)c1ccc(Cl)cc1`, 14.7%.
Turning to `CCn1c(CNC(=O)c2ccco2)nnc1SCC(=O)c1ccc(F)cc1`, the “hERG current change (%, negative = inhibition) at 10uM” value is 9.43%.
For `COc1ccc(C(c2nnnn2Cc2ccccc2)N2CCN(c3nc4ccccc4s3)CC2)cc1OC.Cl` (stereo not drawn), the “hERG current change (%, negative = inhibition) at 10uM” value is listed as -58.4%.
With `Cc1ccc(NC(=S)NNC(=O)c2nn(C)c(C)c2Cl)cc1`, the “hERG current change (%, negative = inhibition) at 10uM” value turned out to be 8.07%.
Turning to `O=C(O)Cc1ccc(NC(=O)COc2ccc3ccccc3c2)cc1`, the “hERG current change (%, negative = inhibition) at 10uM” value is recorded as 8.25%.
For `COc1cc(C(=O)N/C(=C\c2cn(C)c3ccccc23)C(=O)NCCCn2ccnc2)cc(OC)c1OC` the value was 11%; for `CCCCOc1ccc(-c2c(C#N)c(N)[nH]c(=S)c2C#N)cc1`, 15.8%; for `C=CCN1C(=O)C2(NC(=O)c3ccccc3N2)c2ccccc21` (stereo not drawn), 13.9%.
For `Cc1cccc(C)c1NC1=NCCCCS1` the value was -5.62%.
For `CN(Cc1nc2ccccc2c(=O)[nH]1)CC(O)COCc1ccco1` (stereo not drawn) the value was -13.9%; for `Cc1ccc(C2C(=O)N(C3CCC(C)CC3)CC(=O)N2C2CC2)cc1` (stereo not drawn), -24.6%.
For the compound `CCOC(=O)N1CCN(C(c2ccc(F)cc2)c2sc3nc(C)nn3c2O)CC1` (stereo not drawn), the “hERG current change (%, negative = inhibition) at 10uM” value is -15.1%.
Under `COc1ccccc1OCCn1ccnc1` stands 20%; under `CC(=O)c1cccc(NC(=O)c2ccncc2)c1`, -8.77%; under `COc1cccc(NC(=S)N(Cc2ccccn2)Cc2ccccc2Cl)c1`, 5.73%.
Under `Cc1ccc(CNC(=O)C2CN(S(C)(=O)=O)c3cc(Cl)ccc3O2)cc1` (stereo not drawn) stands -11%; under `O=C(CCNC(=O)c1ccc(Br)cc1)NNC(=O)c1ccccc1O`, 14%.
As to `CCCSC1=C(C#N)C(c2ccccc2C)C(C(=O)OC)C(=O)N1` (stereo not drawn), the “hERG current change (%, negative = inhibition) at 10uM” value was -6.56%.
